Reference: patent US20250205270A1, “ANTIBODY-DRUG CONJUGATE PRECURSORS COMPRISING A CYCLIC DINUCLEOTIDE” (TAKEDA PHARMACEUTICAL COMPANY LIMITED, priority 2016, published 2025)
Counter-ions that a name gives are not always drawn. Like-named read-outs stand apart in the source and are kept apart here. One block for each compound: values may come before it.

Experiments:
wild-type STING [1] = molecular target: T1, wild-type STING (Homo sapiens (Human), UniProt Q86WV6, H232R); assay: STING-binding test (TR-FRET, displacement of fluorescein-labeled 2′,3′-cGAMP); settings: 30 μM test compound
wild-type STING [2] = molecular target: T1, wild-type STING; settings: 2′,3′-cGAMP (30 μM) = 100%, solvent = 0%
[3] = molecular target: mutated-type STING (R232H) (Homo sapiens (Human), UniProt Q86WV6)

Structure (SMILES): Nc1ncnc2c1ncn2[C@@H]1O[C@@H]2COP(=O)(O)O[C@@H]3[C@H](O)[C@@H](COP(=O)(S)O[C@H]2[C@H]1F)O[C@H]3n1cc(F)c2c(=O)[nH]cnc21 (stereo partly drawn) [Example 3, 7-((2R,5R,7R,8R,12aR,14R,15R,15aR,16R)-14-(6-amino-9H-purin-9-yl)-15-fluoro-10,16-dihydroxy-2,10-dioxido-2-sulfanyloctahydro-12H-5,8-methanofuro[3,2-1][1,3,6,9,11,2,10]pentaoxadiphosphacyclotetradecin-7-yl)-5-fluoro-3,7-dihydro-4H-pyrrolo[2,3-d]pyrimidin-4-one 1.7 Triethylamine Salt]
binding inhibition rate of test compound (30 μM) (wild-type STING [1]): 64%
activity level of test compound (30 μM), STING agonistic activity test (wild-type STING [2]): 76%

Structure (SMILES): Nc1ncnc2c1ncn2[C@@H]1O[C@@H]2COP(=O)(O)O[C@@H]3[C@H](O)[C@@H](COP(=O)(S)O[C@H]2[C@H]1F)O[C@H]3n1cc(F)c2c(=O)[nH]cnc21 (stereo partly drawn) [Example 3a, 7-((2R,5R,7R,8R,12aR,14R,15R,15aR,16R)-14-(6-amino-9H-purin-9-yl)-15-fluoro-10,16-dihydroxy-2,10-dioxido-2-sulfanyloctahydro-12H-5,8-methanofuro[3,2-1][1,3,6,9,11,2,10]pentaoxadiphosphacyclotetradecin-7-yl)-5-fluoro-3,7-dihydro-4H-pyrrolo[2,3-d]pyrimidin-4-one Disodium Salt]
binding inhibition rate of test compound (30 μM) (wild-type STING [1]; Disodium Salt): 93%
activity level of test compound (30 μM), STING agonistic activity test (wild-type STING [2]; Disodium Salt): 107%

activity level against mutated-type STING (R232H) of test compound (30 μM) [3]: 92%
Structure (SMILES): Nc1ncnc2c1ncn2[C@@H]1O[C@@H]2COP(=O)(O)O[C@@H]3[C@H](O)[C@@H](COP(=O)(O)O[C@H]2[C@H]1F)O[C@H]3n1cc(F)c2c(=O)[nH]cnc21 [Example 1a, 7-((5R,7R,8R,12aR,14R,15R,15aR,16R)-14-(6-amino-9H-purin-9-yl)-15-fluoro-2,10,16-trihydroxy-2,10-dioxidooctahydro-12H-5,8-methanofuro[3,2-1][1,3,6,9,11,2,10]pentaoxadiphosphacyclotetradecin-7-yl)-5-fluoro-3,7-dihydro-4H-pyrrolo[2,3-d]pyrimidin-4-one Disodium Salt]
